Screen size: about 150,000 compounds; about 540 (0.36%) showed an effect of 50% or more. The list shows a part of the results.
The molecules below were run on Plasmodium falciparum (assay: Primary screen in NF54 nanoGlo assay, in single point, at 2uM, 72h; a lower Z score goes with more inhibition). Conditions: timepoint 72 hour.
Type: functional, Erythrocyte

Compound | % Inhibition [%] | Z score
CC1CC(N)CCN1C(=O)c1ccc(Oc2ccc(C(F)(F)F)cn2)cc1 (stereo not given) | 15 | -1.88
CCOC(=O)Cc1csc(NC(=O)[C@@H]2CCCN2S(=O)(=O)c2ccccc2F)n1 | 0 | 0.02
CCN(CC)[C@@H](CNc1oc(-c2cccnc2)nc1C#N)c1ccc(C(C)C)cc1 | 5 | -0.69
COc1cccc(C2(NC(=O)C3CC4C=CC3C4)CCOCC2)c1F (stereo not given) | -5 | 0.58
COCCN1C(=O)c2ccc(C(=O)Nc3ccc4[nH]ccc4c3)cc2C1=O | -5 | 0.76
O=C1CC[C@@H](C(=O)N2CC(N3CCCC3=O)C2)n2cccc21 | -3 | 0.58
COc1cnc(N(C)S(=O)(=O)c2c(C)nn(C)c2Cl)nc1 | -9 | 1.26
Cc1scc(C(=O)NCc2ccccn2)c1C | -12 | 1.61
CCN(C)C(C)(C)CNC(=O)[C@H](C)n1cc(Cl)cn1 | -11 | 1.54
COc1ccc(S(=O)(=O)N2CCN(c3oc(C(C)(C)C)nc3C#N)CC2)cc1 | -5 | 0.71
Cc1csc(N(C)C(=O)[C@@H]2COc3ccccc3O2)n1 | -6 | 1.24
Cc1cc(NS(=O)(=O)c2ccc3c(c2)CC(Cl)(Cl)C3=O)nn1C | 13 | -1.52
CC(=O)c1ccc(N2CCC3(CCC(=O)N(CCc4c[nH]cn4)C3)CC2)nc1 | -7 | 0.86
CCOc1ccc(-c2c[nH]c(-c3cccc(OC)c3OC)n2)cc1 | 0 | 0.03
C[C@H]1C(=O)Nc2ccccc2CN1CC1(CS(C)(=O)=O)CC1 | -7 | 1.16
COc1cc(C(=O)N[C@H](CO)CC(C)C)ccc1Cl | -2 | 0.29
Cc1ccc(S(=O)(=O)NCc2ccc(C(=O)NC3CCCCC3)cc2)cc1 | -6 | 1.03
O=S(=O)(CCn1nnc2ccccc21)NCC1CCCC1 | -13 | 1.18
CN(C(=O)Cn1c2cc(Cl)ccc2c(=O)n1C(C)(C)C)c1ccccc1 | 11 | -1.71
O=C(c1ccon1)N1CCn2c(Cc3cccc(F)c3)nnc2C1 | -18 | 1.83
CCN(Cc1nc2ccccc2c(=O)[nH]1)C(=O)c1ccoc1 | -8 | 1.06
COCCN1C(=O)CC(CC(=O)N2CCCCC2c2nccn2C)(c2ccccc2C)C1=O (stereo not given) | -13 | 1.82

Compound | % Inhibition [%] | Z score
Cc1sc(-c2cc(C(F)(F)F)on2)cc1S(=O)(=O)N1CCc2ccccc21 | -4 | 0.71
Cc1ccc(C)c(Cn2c(COc3ccc4ccccc4c3)nc3ccccc32)c1 | -4 | 0.43
Cc1ncc2c(c1-c1noc(CCN3Cc4ccccc4C3)n1)CCNC2 | -3 | 0.42
CC(NC(=O)c1csc(-c2ccco2)n1)C1CCCO1 (stereo not given) | -8 | 1.41
CC(C)C(C)NC(=O)CNC(=O)C1CC1C (stereo not given) | -4 | 0.8
O=C(C1CCN(c2ccc(N3CCCC3)nn2)CC1)N1CCN(c2cccc(C(F)(F)F)c2)CC1 | -20 | 3.52
Cc1onc(N)c1S(=O)(=O)N(c1ccccc1)C(C)C | -2 | 0.27
CCC(Oc1cccc(C)c1)C(=O)NC1CCC(=O)N(C)C1 (stereo not given) | -8 | 0.82
Cc1cc(S(=O)(=O)NC[C@H](C)O)c(C(C)C)cc1Br | -9 | 0.83
O=C1CCN(c2ncc(-c3cccc4[nH]c(=O)[nH]c34)cn2)CC1 | -8 | 1.69
Cc1nonc1CC(=O)N(C)C[C@H]1COc2ccccc2O1 | -16 | 2.08
Cc1cc(C(=O)N2CC(n3cc(C4CC4)nn3)C2)no1 | -16 | 1.89
Cc1ccc(CN2CCC[C@H](CNC(=O)c3ccncn3)C2)cc1C | -11 | 2.13
COc1ccc(Cl)cc1N1CCN(Cc2nc(C(=O)NCc3cccc(C(F)(F)F)c3)co2)CC1 | -18 | 1.8
Cc1cc(NC(=O)N2CC(C)(C)[C@@H]3COC[C@@H]32)ccc1-c1ccncc1 | -13 | 2.18
CC1(C)NC(=O)N(CC(=O)Nc2ccc3c(c2)OCCCO3)C1=O | -7 | 1.37
COc1ccc(N2CCN(C(=O)c3nccnc3NC(=O)c3ccccc3)CC2)cc1 | -13 | 1.97
Cc1ccc(O)c(CN(CCN(C)C)Cc2ccsc2)n1 | -8 | 1.15
COc1ccccc1CCN(C)c1cc(N2CCOCC2)ncn1 | -3 | 0.31
O=C(Cc1ccc(F)cc1)NC[C@H]1CCN(C(=O)c2ccccn2)C[C@@H]1O | -9 | 1.58
CC1CCCCC1N(C)C(=O)C1=NN(C)C(=O)CC1 (stereo not given) | 1 | -0.18
O=C(NCC1(CO)CCC1)Nc1cccc(-c2ccccc2)c1 | -2 | 0.24

Compound | % Inhibition [%] | Z score
CCc1nnc(CN[C@@H](C)c2ccc(S(C)(=O)=O)c(F)c2)n1C | -5 | 0.58
CCCCn1nnnc1Cn1c(=O)c2c(C(F)(F)F)cc(C)nc2n1C | -4 | 0.51
Cc1cc(C(=O)Nc2nnc(C3CC3)s2)no1 | 5 | -0.48
CCOc1ncccc1C(=O)N1CCC[C@H](c2nc(CCOC)no2)C1 | -3 | 0.41
Cc1cc(O)cc(=O)n1CCNC(=O)c1ccncc1 | -13 | 1.62
C[C@H](NC(=O)OC(C)(C)C)c1nnc(S(=O)(=O)Cc2c(F)cccc2Cl)o1 | 5 | -0.93
COC(=O)C1=C(C)N([C@@H](C)c2ccccc2)C(=O)C1 | 13 | -1.59
CS(=O)(=O)N1CC(Oc2cccnc2)C1 | -8 | 1.52
Cc1cc(C)c(N2CC[C@H](NC(=O)c3cnns3)C2=O)c(C)c1 | 5 | -0.97
O=C(C1CC=CCC1c1nc2ccccc2s1)N1CCN(c2ccccc2)CC1 (stereo not given) | -1 | 0.21
Cc1cc(CN(C)S(=O)(=O)c2cnc(-c3ccccc3)nc2)no1 | 7 | -0.9
CC(C)(C)Cc1cc(NC(=O)Nc2nccs2)n[nH]1 | -15 | 2.38
C=CCOCC(=O)c1ccc(NC(C)=O)cc1 | -14 | 1.9
Cc1nn(C)cc1-c1cnc(C(C)(C)C)o1 | -4 | 0.53
C[C@H](C(=O)O)C(=O)N(C)Cc1cc(Cl)ccc1F | -1 | 0.06
O=S(=O)(N1CCCCCC1)N1CCN(Cc2ccco2)CC1 | -18 | 1.94
Cc1cc(C)nc(NC(=O)NC[C@](C)(O)c2cccs2)c1 | -5 | 0.84
Nc1ncc(-c2cc3ccccc3o2)cn1 | -9 | 1.42
CCCCN1CCc2ccc(NC(=O)CS(=O)(=O)CCC)cc21 | 31 | -3.46
Cc1nc(C2CC2)nc(N2CCN(C(=O)NC(C)C)CC2)c1Cc1c(F)cccc1Cl | 0 | -0.05
N#Cc1cccc(-c2ccc(=O)n3c2[C@@H]2C[C@@H](CN(S(=O)(=O)c4ccccc4C#N)C2)C3)c1 | -1 | 0.15
CC[C@H]1OCC[C@@H]1C(=O)N1CCn2c(CC3CC3)nnc2C1 | 3 | -0.34

Compound | % Inhibition [%] | Z score
CC(=O)Nc1ccn2ncc(C(=O)N3CCCCC3)c2c1 | -6 | 0.93
C=C1CC(C)(c2noc(-c3cc(C)[nH]n3)n2)C1 | 1 | -0.19
Cc1ccc(NC(=O)Cn2ccc3c(=O)[nH]ccc32)cc1 | -32 | 3.05
Cc1ccc2oc(CN3CCN(S(=O)(=O)c4cc(C)c(C)cc4C)CC3)nc2c1 | -20 | 1.73
COC[C@H](C)n1cnc(-c2ccccc2)c1-c1cc2c(cc1OC)OCO2 | -10 | 1.02
c1cc(NCCC2CC3CCC2C3)nc(C2CC2)n1 (stereo not given) | -9 | 1.04
N#C[C@@H]1CN(S(=O)(=O)CC2CCCCC2(F)F)C[C@H]1c1ccccc1 (stereo not given in full) | -5 | 1.14
CCn1cc(-c2noc(CNC(=O)[C@H](C)n3cccn3)n2)cn1 | -17 | 2.19
NC(=O)C[C@H]1CCCCN1c1ccnc(Cc2ccccc2)n1 | -8 | 1.48
CCC[C@H]1CN(c2cnccn2)CCN1 | -7 | 0.87
CC(CN1CC[C@H](O)C1)c1cccc(Cl)c1 (stereo not given in full) | -6 | 0.53
CCC(CC)N1C[C@@H](C(=O)Nc2nccnc2C2CC2)CC1=O | 3 | -0.29
C=CCC1(C(=O)Nc2ccc3c(c2)CN(C)C(=O)N3)CCC1 | 0 | 0.02
O=C(Nc1nccn1Cc1ccc(Br)cc1)C1CC(O)CN1 (stereo not given) | -5 | 0.64
CCCC1(NC(=O)[C@H]2C[C@@](CC)(C(=O)O)N(C)[C@H]2c2ccc(OC)cc2)CC1 | -10 | 1.31
CC1(C)C[C@@H]1C(=O)NCc1ccncc1 | -8 | 1.38
CC(C)Oc1ccc(N2C[C@@H](C(=O)N3CCCC3)CC2=O)cc1 | -23 | 2.13
Cc1cc(C)n(CCCC(=O)N2CCC[C@H]2c2cn(C)nc2C)n1 | -10 | 1.35
N#Cc1c(F)cccc1CN1CCN(C(=O)Cn2cnnn2)CC1 | 16 | -2.08
